Test results from PubChem BioAssay AID488969 (Vanderbilt High Throughput Screening Facility, 2010).
Over roughly 110,000 compounds, “z-score” has its median near -0.1; the highest 2% begin near 2. The list shows a part of the results.

The compounds below were run against Metabotropic glutamate receptor 8 (Rattus norvegicus) (UniProt P70579) (assay: rat mGluR8 modulators via GIRK flux, primary screen, cell-based, thallium flux, HTS (AID 488969)). Settings: HEK293 rat mGluR8, GIRK (G protein-gated inwardly rectifying potassium channel) thallium flux, FluoZin2; at 10 µM; stronger effect = higher value; submaximal glutamate (EC20) added with thallium.
Sequence of UniProt P70579 (P70579 whole entry, looked up): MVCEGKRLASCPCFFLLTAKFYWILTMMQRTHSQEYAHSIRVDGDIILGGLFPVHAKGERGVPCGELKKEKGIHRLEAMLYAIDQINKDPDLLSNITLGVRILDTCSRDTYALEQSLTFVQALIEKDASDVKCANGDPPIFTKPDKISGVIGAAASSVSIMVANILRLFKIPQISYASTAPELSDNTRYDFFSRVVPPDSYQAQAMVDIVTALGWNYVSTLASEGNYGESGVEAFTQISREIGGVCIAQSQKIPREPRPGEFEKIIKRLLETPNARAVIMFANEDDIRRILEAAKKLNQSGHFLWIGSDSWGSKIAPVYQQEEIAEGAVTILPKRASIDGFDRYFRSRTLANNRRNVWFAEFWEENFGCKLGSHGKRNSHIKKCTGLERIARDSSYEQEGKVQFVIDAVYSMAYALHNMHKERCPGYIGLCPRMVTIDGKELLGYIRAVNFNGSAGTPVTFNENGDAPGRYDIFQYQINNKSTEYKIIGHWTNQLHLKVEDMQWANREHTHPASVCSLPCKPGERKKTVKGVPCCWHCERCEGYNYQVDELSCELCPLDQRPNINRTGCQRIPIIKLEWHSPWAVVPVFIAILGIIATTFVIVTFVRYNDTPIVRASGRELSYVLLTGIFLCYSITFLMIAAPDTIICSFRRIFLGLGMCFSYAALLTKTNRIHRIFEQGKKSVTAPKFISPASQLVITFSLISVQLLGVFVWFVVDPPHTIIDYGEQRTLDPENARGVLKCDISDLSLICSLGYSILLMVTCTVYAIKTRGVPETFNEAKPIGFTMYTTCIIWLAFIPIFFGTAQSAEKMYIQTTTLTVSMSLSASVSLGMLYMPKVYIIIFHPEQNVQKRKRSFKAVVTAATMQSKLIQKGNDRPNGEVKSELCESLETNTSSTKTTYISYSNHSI

| SMILES | z-score |
| --- | --- |
| COc1cc(NS(=O)(=O)c2ccc(NC(=S)NC(=O)c3sc4ccccc4c3Cl)cc2)nc(OC)n1 | -1.14 |
